Drawing on a collection of fitness landscapes (doi:10.1038/s41467-024-54723-y), this text covers TetR repression strength for 102 sequences.

Over roughly 18,000 sequences, “TetR repression strength (sort-seq, GFP reporter)” has its median near 0.23; the highest 2% begin near 0.68. This is one part of the list.

In the experiment the target is TetR (class B, Tn10) (UniProt P04483). As to the kind of experiment: TetR repression strength (sort-seq, GFP reporter) (relative to tetO2 = 1); higher = stronger repression. The settings on record: E. coli. The method in brief: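 Three independent transformations of E. coli SIG10-MAX were made with a low-copy plasmid library randomizing eight operator positions between a constitutive promoter and sfGFP, with constitutive TetR. Following 5 h at 37 °C in LB plus 50 µg/mL chloramphenicol, 10^6 cells went through FACS into 13 fluorescence bins, and each bin was sequenced by Illumina. Repression strength was defined as the top bin index plus one minus the read-weighted mean bin, divided by the unaltered operator's value. Averages included only members reaching ≥30 reads in all replicates with a CV ≤0.5.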
Sequence of UniProt P04483 (P04483 whole entry): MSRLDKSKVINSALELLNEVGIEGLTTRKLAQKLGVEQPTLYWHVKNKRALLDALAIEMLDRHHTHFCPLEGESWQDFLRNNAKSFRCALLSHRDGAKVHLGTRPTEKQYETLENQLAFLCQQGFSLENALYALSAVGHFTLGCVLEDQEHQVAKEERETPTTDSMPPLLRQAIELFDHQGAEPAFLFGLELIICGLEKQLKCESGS
TCCCAATCAGTCGGCGAGA displayed a TetR repression strength of 0.29. The same measure for TCCCCCTTAGTCTGCGAGA: 0.202. The same measure for TCCCTCTGAGTCCGAGAGA: 0.22; for TCCCAGATAGTAATGGAGA: 0.187. The value for TCCCCATGAGTAGTGGAGA was 0.139; that for TCCCGTTGAGTGGTCGAGA was 0.1; that for TCCCGTTGAGTTGCGGAGA was 0.126. Turning to TCCCAGCGAGTGGGAGAGA, the TetR repression strength came to 0.386.

TCCCGCCGAGTGATAGAGA: the TetR repression strength was 0.477. For TCCCAGTGAGTTCGGGAGA, the TetR repression strength is 0.166. As for TCCCACGGAGTTAGAGAGA, the TetR repression strength was found to be 0.412. The same measure for TCCCTATGAGTGCGGGAGA: 0.24; for TCCCGCTAAGTCGTTGAGA: 0.206; for TCCCCAGAAGTGGTAGAGA: 0.255. The value for TCCCGGGCAGTTAGAGAGA was 0.155; that for TCCCGAGGAGTCTAGGAGA was 0.186. The value for TCCCCCGTAGTGGGAGAGA was 0.312; that for TCCCTCTGAGTGTTTGAGA was 0.384. In turn, TCCCATGGAGTCATGGAGA registered a TetR repression strength of 0.205. The same measure for TCCCGTGCAGTGTGGGAGA: 0.295; for TCCCAATAAGTTTGTGAGA: 0.0461; for TCCCACGTAGTTAGCGAGA: 0.0518. TCCCAGTGAGTTGGAGAGA came in with a TetR repression strength of 0.303. The value for TCCCGAATAGTAAAGGAGA was 0.347; that for TCCCTTTAAGTTAACGAGA was 0.404. The same measure for TCCCGCCGAGTGACAGAGA: 0.484. In the case of TCCCCCTGAGTCATTGAGA, the TetR repression strength came to 0.526. In turn, TCCCAAATAGTGGTTGAGA registered a TetR repression strength of 0.0746. The value for TCCCGGTGAGTCAAGGAGA was 0.206; that for TCCCCGGGAGTCCGAGAGA was 0.353.

Regarding TCCCAAGGAGTAAGTGAGA, the TetR repression strength amounted to 0.149.

Take TCCCAATCAGTGTGGGAGA: the TetR repression strength came to 0.153. The same measure for TCCCGGCTAGTGGCGGAGA: 0.147; for TCCCGTCCAGTAATGGAGA: 0.52; for TCCCCCACAGTCGATGAGA: 0.246. In turn, TCCCGTAAAGTGTGAGAGA yielded a TetR repression strength of 0.0929. The same measure for TCCCAATCAGTAACGGAGA: 0.802; for TCCCATGGAGTCGGTGAGA: 0.0966. The same measure for TCCCATAGAGTCAAGGAGA: 0.365; for TCCCGTGTAGTGGCAGAGA: 0.171; for TCCCAATGAGTCTTCGAGA: 0.163. The value for TCCCATGAAGTACGGGAGA was 0.317. TCCCACTTAGTTGCCGAGA displayed a TetR repression strength of 0.539. The value for TCCCCCTCAGTTAGCGAGA was 0.22; that for TCCCAGCGAGTGAGCGAGA was 0.153. Turning to TCCCGGTAAGTCGTAGAGA, the TetR repression strength is 0.269. Sequence TCCCGCACAGTTCACGAGA returned a TetR repression strength of 0.18. In the case of TCCCAAGTAGTGCAAGAGA, the TetR repression strength is 0.349. The same measure for TCCCGCAGAGTCAACGAGA: 0.163; for TCCCTTGGAGTGCGGGAGA: 0.246. For the sequence TCCCGATTAGTGGCAGAGA, the TetR repression strength is 0.148. Consider TCCCAGTTAGTCCTCGAGA, for which the TetR repression strength was determined as 0.244.

Regarding TCCCGGCGAGTAGAAGAGA, the TetR repression strength is 0.418. The same measure for TCCCAGGGAGTCTGTGAGA: 0.278.

On to TCCCCAGGAGTGGGTGAGA, for which the TetR repression strength is 0.428.

The sequence TCCCGGTAAGTTCCGGAGA displayed a TetR repression strength of 0.166. The value for TCCCACGGAGTGGCGGAGA was 0.0816; that for TCCCGCCAAGTAGTGGAGA was 0.268. The same measure for TCCCTGGAAGTGGCTGAGA: 0.32. The value for TCCCATCCAGTAGCCGAGA was 0.364. Take TCCCGCAGAGTAGTCGAGA: the TetR repression strength amounted to 0.188.

TCCCACTGAGTGCCTGAGA: the TetR repression strength came out at 0.139. The value for TCCCTGATAGTTGTGGAGA was 0.354; that for TCCCTATTAGTAGCAGAGA was 0.143; that for TCCCATCTAGTTGGGGAGA was 0.219. The same measure for TCCCTAGTAGTATTGGAGA: 0.215. The same measure for TCCCGATGAGTGGTTGAGA: 0.14; for TCCCAGTTAGTGGTCGAGA: 0.202; for TCCCGAAGAGTGGTAGAGA: 0.353.

As for TCCCTAAGAGTGAATGAGA, the TetR repression strength is 0.276. The same measure for TCCCATCAAGTTATTGAGA: 0.363; for TCCCGGACAGTTGGAGAGA: 0.299; for TCCCCTACAGTAGTAGAGA: 0.0811. The same measure for TCCCCGAAAGTATTCGAGA: 0.0399. The same measure for TCCCGAAAAGTATGGGAGA: 0.268; for TCCCATGCAGTCAATGAGA: 0.146. For the sequence TCCCTGACAGTGTGCGAGA, the TetR repression strength is 0.39. For TCCCGTTGAGTGTGTGAGA, the TetR repression strength was 0.251.

As for TCCCATCGAGTAATAGAGA, the TetR repression strength worked out at 0.319. The value for TCCCGACGAGTTTGTGAGA was 0.161; that for TCCCGGTCAGTCTTTGAGA was 0.165. Sequence TCCCCTTCAGTAGCGGAGA displayed a TetR repression strength of 0.344. The value for TCCCAGGCAGTAGGGGAGA was 0.203; that for TCCCATATAGTCTACGAGA was 0.298; that for TCCCGTCGAGTGCAGGAGA was 0.0421. The same measure for TCCCGGTGAGTCCACGAGA: 0.261; for TCCCGTGGAGTCTTGGAGA: 0.207; for TCCCAAACAGTGTTGGAGA: 0.236. The same measure for TCCCATTGAGTTGCCGAGA: 0.24; for TCCCTTACAGTGCTAGAGA: 0.207; for TCCCAAGCAGTCCGGGAGA: 0.183. TCCCTGACAGTGGAGGAGA displayed a TetR repression strength of 0.18.

In the case of TCCCCCGAAGTGATCGAGA, the TetR repression strength was determined as 0.41. The same measure for TCCCGGGAAGTCATGGAGA: 0.154; for TCCCGGATAGTGTTCGAGA: 0.0981; for TCCCTACCAGTTTCAGAGA: 0.31. On to TCCCTCTAAGTGGGAGAGA, for which the TetR repression strength is 0.0484. The value for TCCCGACGAGTGGGAGAGA was 0.183; that for TCCCAGAAAGTGACGGAGA was 0.0499. The value for TCCCCGTCAGTTGCGGAGA was 0.0612; that for TCCCGGCGAGTCGTGGAGA was 0.227; that for TCCCTAAAAGTTCGAGAGA was 0.226.
